The campaign covered roughly 420,000 compounds. About 50,000 (12%) were called active. Inconclusive results, whose numbers are uncertain, are shown with a selection of clear calls. Calls come from the whole dose curve; as a rule, active = well fitted inhibition curve with a large enough effect; inconclusive = small, poorly fitted or top-dose-only effect; inactive = flat fitted curve, though single readings scatter. Potencies of inconclusive entries are left out as doubtful fits.
Assay: qHTS for Inhibitors of human tyrosyl-DNA phosphodiesterase 1 (TDP1): qHTS in cells in presence of CPT; note: nearly all actives have a fitted effect of over 55% in size
Details: chicken DT40 Tdp1-/-;hTDP1 cells + 20 nM CPT, ATP luminescence, 48 h; activity change, negative = growth inhibition: at 46.2 µM (top of the series) unless noted
In short: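 Chicken DT40 Tdp1-/- cells stably complemented with human TDP1 were seeded at 400 cells/well in medium containing 20 nM camptothecin, exposed to pin-transferred compounds, and grown at 37 °C for at least 48 hr. Viability was read as ATP luminescence.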
With `COc1ccc(NC(=S)NC(=O)c2ccc(Br)o2)cc1` the Potency was “inactive”. For `COc1ccc(S(=O)(=O)N2CCC(C(=O)NN3CCCCC3)CC2)cc1`, the Potency was “inactive”. For `COC(=O)c1ccc(Nc2nc(N3CCOCC3)nc(N3CCOCC3)n2)cc1`, the Potency was inconclusive [inhibitor, single point]. With `N#CCc1c(C#N)c(N)nc(N2CCOCC2)c1C#N` the Potency was inconclusive [inhibitor, partial curve, poor fit]. With `COc1ccc(/C=N/NC(=O)Cn2c(Cc3ccc(OC)c(OC)c3)nc3ccccc32)cc1` the Potency was “inactive”. For `CN(C(=O)c1cccc(NC(=O)Cc2cccc(NC(=O)C3CCN(C(=O)C4CCCC4)CC3)c2)c1)C1CCC1`, the Potency was inconclusive [inhibitor, single point]. With `Cc1cc2c(cc1NS(=O)(=O)c1ccc(Br)cc1)n(C)c(=O)c(=O)n2C` the activity change, negative = growth inhibition was inconclusive: -34.3% [inhibitor]. In the case of `COc1ccc(C(=O)N2C=Cc3ccccc3C2C(N)=O)cc1` (configuration not stated), the Potency is reported as inconclusive [inhibitor, single point]. For `Cc1ccccc1C1c2[nH]c3ccccc3c2C[C@H]2C(=O)N(c3ccccc3C(=O)NCCCN3CCOCC3)C(=O)N12` (some centres not stated), the Potency was active: 23.1 µM. In the case of `Cc1c(O)ccc(C(=O)CN2CCN(c3ccccc3F)CC2)c1O`, the Potency is reported as inconclusive [inhibitor, single point]. For `COC(=O)c1cn[nH]c1NC(=S)Nc1ccc(Cl)c(Cl)c1`, the Potency was inconclusive [inhibitor, single point]. For `Cn1c(SCC(=O)NNC(=O)c2ccccc2)nnc1C1CC1`, the Potency was “inactive”. With `CC(C)CC(COCc1ccc(F)cc1)N1CCN(C(=O)c2cccc(C(F)(F)F)c2)CCC1=O` (configuration not stated) the Potency was inconclusive [inhibitor, single point]. In the case of `CCNc1nc(Oc2ccc(C(=O)OCC)cc2)nc(SC)n1`, the Potency is reported as inconclusive [inhibitor, single point]. In the case of `CC(C)c1ccccc1OCC(=O)Nc1cc(S(=O)(=O)N2CCOCC2)ccc1N1CCCC1`, the Potency is reported as inconclusive [inhibitor, single point]. For `CCOC(=O)C(C(=O)N(C)Cc1ccccc1)C1CCCCC1` (configuration not stated), the Potency was inconclusive [inhibitor, partial curve, poor fit]. With `CC(=O)c1c(C)[nH]c(C(=O)OCc2ccccc2)c1C` the Potency was inconclusive [inhibitor, single point]. With `O=C(NC(CSCc1ccccc1)C(=O)N/N=C/c1ccc(O)cc1O)c1ccc([N+](=O)[O-])cc1` (configuration not stated) the Potency was active: 7.08 µM. In the case of `CCOc1ccccc1CN1CCNC(=O)C1CC(=O)N(C)Cc1nonc1C` (configuration not stated), the Potency is reported as inconclusive [inhibitor, full curve, poor fit]. With `O=C(c1ccco1)N1CCC2(CC1)CCN(c1cccc(-c3ccccc3)c1)CC2` the Potency was inconclusive [inhibitor, single point]. For `O=C(c1cnn(C(=O)c2ccco2)c1)c1cc(Cl)cc(Cl)c1O`, the Potency was “inactive”. For `COc1cc(/C=C2\SC(=S)N(NC(=O)c3cccc(O)c3)C2=O)ccc1O`, the Potency was active: 16.4 µM. In the case of `CCCCN1C(=O)C(CC(=O)NCc2cccc3ccccc23)CC(C(=O)N2CCOCC2)=C1C` (configuration not stated), the Potency is reported as “inactive”. For `CCCSCCCNC(=O)c1ccc(C)c(NC(=O)c2nsc3ccccc23)c1`, the Potency was inconclusive [inhibitor, single point]. With `CC(C)C[C@@H](COCc1ccc(F)cc1)N1CCN(C(=O)c2cccc(C(F)(F)F)c2)CCC1=O` the Potency was inconclusive [inhibitor, single point]. For `COC(=O)c1cc(NC2c3ccccc3C(=O)N2Cc2ccco2)cc(C(=O)OC)c1` (configuration not stated), the Potency was “inactive”. With `COc1ccc(-c2coc3c(C(=O)NCc4ccco4)cccc23)c(C)c1` the Potency was active: 18.4 µM. In the case of `O=C(NCCC(=O)N(CCc1ccccc1)Cc1ccccc1)c1ccc(Br)cc1`, the Potency is reported as inconclusive [inhibitor, single point]. For `COc1ccc(-c2cc(C(=O)Nc3cc(C)on3)c3ccccc3n2)c(OC)c1`, the Potency was active: 11.6 µM. In the case of `Cc1ccc(NNC(N)=S)cc1Cl`, the Potency is reported as inconclusive [inhibitor, single point]. For `CCc1ccc(NC(=O)C2CCN(S(=O)(=O)c3ccc4c(c3)NC(=O)CO4)CC2)cc1`, the Potency was inconclusive [inhibitor, single point]. For `O=C(Nc1ccc(S(=O)(=O)NC2=NCCCCC2)cc1)c1ccccc1Cl`, the Potency was “inactive”. With `Cc1csc2ncc(C(=O)NCCc3ccccc3)c(=O)n12` the activity change, negative = growth inhibition was inconclusive: -32.5% [inhibitor]. In the case of `O=C(NCCCO)c1ccc(CSc2nc3ccccc3[nH]2)cc1`, the Potency is reported as inconclusive [inhibitor, single point]. In the case of `Cc1nc2cc(Nc3nnc(-c4ccccc4)c4ccccc34)ccc2n1C`, the Potency is reported as inconclusive [inhibitor, single point]. For `CCCc1nc(SCC(=O)c2ccc3c(c2)NC(=O)CO3)[nH]c(=O)c1CC`, the Potency was inconclusive [inhibitor, single point]. For `CC(OC(=O)c1ccc([N+](=O)[O-])s1)C(=O)NC1CCCCC1C` (configuration not stated), the Potency was active: 23.1 µM. For `CC(=C(CCOP(=O)(O)O)SC(=O)c1ccccc1)N(C=O)Cc1cnc(C)nc1N`, the Potency was “inactive”. With `CC1CCN(S(=O)(=O)c2ccc3[nH]cc(C(=O)NCCN4CCOCC4)c(=O)c3c2)CC1` the Potency was inconclusive [inhibitor, single point]. For `COc1ccc(OC)c(NC(=O)c2oc(=O)c3ccccc3c2-c2ccccc2)c1`, the Potency was inconclusive [inhibitor, single point]. For `COc1ccc(N2CCN(S(=O)(=O)c3ccc(F)c(C(=O)Nc4ccccc4Cl)c3)CC2)cc1`, the Potency was active: 7.31 µM. For `Cc1ccc2nc(Nc3ccc(C)c(C)c3)c3nncn3c2c1`, the Potency was inconclusive [inhibitor, single point]. In the case of `COc1cccc(/C=N/NC(=O)c2cccc3ccccc23)c1OC`, the Potency is reported as inconclusive [inhibitor, single point]. With `Cn1nc(-c2ccccc2F)c2cc(C(=O)NCc3ccccc3Cl)sc21` the Potency was inconclusive [inhibitor, partial curve]. For `COc1cc2c(cc1OC)C(c1cccc(Cl)c1)CC(=O)N2` (configuration not stated), the Potency was inconclusive [inhibitor, single point]. In the case of `CN(C)c1ccc(Nc2ncnc3ccc(Br)cc23)cc1`, the Potency is reported as inconclusive [inhibitor, partial curve]. In the case of `CSc1nnc(-c2ccco2)c(-c2ccco2)n1`, the Potency is reported as inconclusive [inhibitor, single point]. In the case of `Cc1[nH]c2ccccc2c1C(=O)CNc1ccc(Br)cc1`, the Potency is reported as inconclusive [inhibitor, single point]. For `CC1=C(C(=O)OC2CCCCC2)C(c2ccc(N(C)C)cc2)NC(=O)N1` (configuration not stated), the Potency was inconclusive [inhibitor, single point]. For `CCN(CC1CCCN(CCc2cccc(F)c2)C1)C(=O)c1cc(C)oc1C` (configuration not stated), the Potency was inconclusive [inhibitor, single point]. For `CC(=O)CC(=O)Nc1ccc(Nc2ccccc2)cc1`, the Potency was inconclusive [inhibitor, single point]. In the case of `CC(C)(C)OC(=O)N1CCC(c2c(C(=O)NCc3cccs3)cnn2-c2cccc(F)c2)CC1`, the Potency is reported as inconclusive [inhibitor, single point]. With `O=C(O)CC1Cc2ccccc2C1C(=O)O` (configuration not stated) the Potency was “inactive”. With `CN1OC[C@@H]2CN(C(=O)C(C)(C)C)[C@H](c3ccc(-c4cc5ccccc5o4)cc3)C[C@@H]21` the Potency was inconclusive [inhibitor, single point]. For `CCOC(=O)c1sc(=S)n(-c2ccccc2Cl)c1SC`, the Potency was inconclusive [inhibitor, partial curve, poor fit]. For `CCOc1ccc(NCc2cccn2-c2nnc(N3CCC(C(=O)NCc4ccccc4Cl)CC3)s2)cc1`, the Potency was “inactive”. For `COc1cccc(OC)c1C(=O)Nc1sc2c(c1C(N)=O)CCN(Cc1ccccc1)C2`, the Potency was inconclusive [inhibitor, single point]. In the case of `O=C(c1ccc(F)cc1)N1CCc2c([nH]c3ccccc23)C1c1ccc(Cl)cc1` (configuration not stated), the Potency is reported as inconclusive [inhibitor, single point]. For `COc1cc2ccccc2cc1C(=O)N/N=C/c1ccc2c(c1)OCO2`, the Potency was active: 4.61 µM. With `CCc1ccc(OCCSc2nc3ccccc3n2CC(=O)N2CCCCC2)cc1` the Potency was inconclusive [inhibitor, single point]. With `CCOc1cccc(C(=O)Nc2cccc(C(C)=O)c2)c1` the Potency was inconclusive [inhibitor, single point]. In the case of `CC(C)COc1cccc(C(=O)Nc2ccc(S(=O)(=O)N3CCOCC3)cc2)c1`, the Potency is reported as inconclusive [inhibitor, single point]. In the case of `O=C(O)c1cc(S(=O)(=O)NCCN2CCNC2=O)ccc1O`, the Potency is reported as inconclusive [inhibitor, single point]. With `O=C(NC(=S)Nc1ccc(NC(=O)c2cccs2)cc1)c1cc2ccccc2o1` the Potency was active: 13 µM. With `COc1cccc(Nc2ncc3ncc(=O)n(Cc4ccc(F)cc4)c3n2)c1` the Potency was inconclusive [inhibitor, partial curve, poor fit]. With `CCCNC(=O)c1cc2c(c(-c3cccc(-c4ccccc4F)c3)n1)[C@@H](CCO)N(C(=O)CC1CC1)C2` the Potency was active: 25.9 µM. With `COc1cccc(CC(=O)N[C@@H](CCSC)c2nc3ccccc3[nH]2)c1` the Potency was inconclusive [inhibitor, full curve, poor fit].

Source: PubChem BioAssay AID686979 (National Center for Advancing Translational Sciences (NCATS), 2013)
% is set by controls: 0 for no effect and ±100 for the full control effect; potency is the fitted concentration of half-maximal effect; tags give direction and shape of the fitted curve.
